According to PubChem BioAssay AID1347417 (National Center for Advancing Translational Sciences (NCATS), 2020):
Among all 120,000 compounds or so, about 5,300 (4.4%) were called active. Inconclusive means that the source gave no clear call. Such entries were picked first, then a sample of the others. Calls come from the whole dose curve; as a rule, active = well fitted inhibition curve with a large enough effect; inconclusive = small, poorly fitted or top-dose-only effect; inactive = no such curve, though single readings can be large or run the other way. Potencies beside an inconclusive call are fits to weak or partial responses and may not hold up.

Assay: qHTS Primary assay for Inhibitors of Plasmodium falciparum Dd2 growth in vitro; note: nearly all actives have a fitted effect of over 65% in size;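 for activity, negative = inhibition: plate controls were DMSO vehicle for no effect and reference drug for full effect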
Details: P. falciparum Dd2 growth, SYBR Green, 72 h; activity, negative = inhibition: at 28.9 µM (top of the series) unless noted; series mostly up to 28.9 µM
Outline: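 Infected erythrocytes (Dd2, 0.3% parasitemia, 2.5% hematocrit final) are added to compound in RPMI-1640/Albumax II medium, grown 72 h at 37C in low oxygen, then lysed with saponin/Triton-X containing SYBR Green and read by fluorescence.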
Potency is the fitted concentration of half-maximal effect; tags give direction and shape of the fitted curve.

Compound | Potency | activity, negative = inhibition
CC(C)NC(=O)N1CNC(=O)C12CCN(C(=O)[C@@H](N)c1ccccc1)CC2 | inactive | 
Cc1cccc(OCC2CCCN(c3ncncn3)C2)c1 (stereo not drawn) | inconclusive: 17.8 µM [inhibitor, single point] | 
Cc1cn(C[C@H](NC(=O)c2cccc(F)c2)C(=O)O)c(=O)[nH]c1=O | inconclusive: 12.6 µM [inhibitor, single point] | 
CCN1C(=O)C2CC3(CCN(Cc4cn[nH]c4-c4ccccc4)CC3)CN2C1=O (stereo not drawn) | inconclusive: 17.8 µM [inhibitor, single point] | 
COc1cccc(C(=O)NCCSc2c(-c3ccc(F)cc3)[nH]c3ccccc23)c1OC | inconclusive: 17.8 µM [inhibitor, single point] | 
C=CCNC(=O)CC1CCCN(c2cnn(CC)c(=O)c2)C1 (stereo not drawn) | inactive | 
O=C1CN(C(=O)c2ccc(S(=O)(=O)N3CCCCC3)cc2)C(c2ccc(F)cc2)c2cc(F)ccc2N1 (stereo not drawn) | inconclusive: 17.8 µM [inhibitor, single point] | 
O=C(NCC1CCCN(Cc2cccc(-c3ccco3)c2)C1)c1cccs1 (stereo not drawn) | inconclusive: 1.58 µM [inhibitor, full curve] | 
CC(Oc1ccc(F)cc1)C(=O)NCC1(N(C)C)CCCCC1 (stereo not drawn) | inconclusive: 0.891 µM [inhibitor, partial curve, poor fit] | 
Cc1c(NC(=O)c2ccc(OC(C)C)cc2)cccc1-c1nc2ncccc2o1 | inconclusive: 6.31 µM [inhibitor, single point] | 
COCCN(C)C(=O)c1cn2cc(-c3ccccc3Cl)n(CC3CC3)c(=O)c2n1 | inconclusive: 12.6 µM [inhibitor, partial curve] | 
O=C(C1CCCCC1)N1CCC(Cc2ccccc2)(C(=O)O)CC1 | inactive | 
Cc1ccc(C(=O)NCCn2c(C)cc3ccccc32)cc1C | inconclusive: 1.58 µM [inhibitor, full curve] | 
Cc1nnc(C(C)NC(=O)C2CCN(C(=O)C3CCCC3)CC2)o1 (stereo not drawn) | inactive | 
COCC(=O)Nc1c(C(=O)OC)n(CCCc2ccccc2)c2ncc(NC(C)CCO)cc12 (stereo not drawn) | inconclusive: 20 µM [inhibitor, single point] | 
CCn1ccnc1CN(C)Cc1cccc(OCC(O)CN(C)C2CCCCC2)c1 (stereo not drawn) | inconclusive: 3.16 µM [inhibitor, partial curve, poor fit] | 
Cc1ccc(NC(=O)Cn2c(N3CCN(c4ccccc4)CC3)nc(C)cc2=O)cc1 | inconclusive: 10 µM [inhibitor, single point] | 
CCCC1c2nccn2CCCN1C(=O)c1cnco1 (stereo not drawn) | inconclusive: 0.398 µM [inhibitor, full curve, poor fit] | 
CCc1ccc(CNC(=O)c2ccc3c(c2)N=C(C)c2cc(C)ccc2S3)cc1 | inconclusive: 10 µM [inhibitor, single point] | 
CCc1nnc([C@@H]2CC(F)(F)CN2C(=O)c2ccc3nc[nH]c3c2)o1 | inactive | 
CC(C)CCN(C1CCNCC1)C1CCOCC1 | inconclusive: 11.2 µM [inhibitor, partial curve] | 
CN(C)CCNC(=O)c1ccc(-n2c(-c3ccccc3)cc3c2CCCC3)cc1 | inconclusive: 5.62 µM [inhibitor, partial curve, poor fit] | 
COc1cc2c(cc1OCCN(C)C)NC(=O)C21CCN(Cc2ccccc2)CC1 | inactive | 

Compound | Potency | activity, negative = inhibition
CCCNC(=O)c1ccc2c(c1)ncn2-c1ccc(C)cc1C | active: 11.2 µM | 
CC(C)OCCCNc1nc2c([S+](=O)([O-])c3ccc(Cl)cc3)nnn2c2ccccc12 | inactive | 
COCCOC1CCOC2(CCN(C(=O)COc3ccc(F)cc3)CC2)C1 (stereo not drawn) | inconclusive: 11.2 µM [inhibitor, single point] | 
O=C(Cc1ccc(N(Cc2ccccc2)C(=O)c2ccco2)cc1)NCc1ccco1 | inconclusive: 1.78 µM [inhibitor, single point] | 
CNC(=O)c1ccc2c(c1)NC(C)(CCCCc1ccccc1)CO2 (stereo not drawn) | inactive | 
COc1ccc(C)cc1NC(=O)c1cc(S(=O)(=O)NC2CCCCCC2)ccc1F | inconclusive: 15.8 µM [inhibitor, single point] | 
Cc1cc(C(=O)N2C[C@@H](CO)[C@H](c3ccccn3)C2)on1 | inactive | 
Cc1cccc(CNS(=O)(=O)c2ccc3[nH]c(=O)ccc3c2)c1 | inactive | 
CCN1c2cc(C(=O)Nc3ccc(C(F)(F)F)cc3)ccc2C(=O)N2CCCCC21 (stereo not drawn) | inconclusive: 2.82 µM [inhibitor, single point] | 
Cc1ccccc1CN1CCCC2(Cc3ccccc3CNC2=O)C1 (stereo not drawn) | inconclusive: 8.91 µM [inhibitor, single point] | 
COc1ccc(-c2nocc2CCC(=O)NCCc2ccc(S(N)(=O)=O)cc2)cc1 | inactive | 
COc1ccc(-c2cccc(CN3CCCC(C)(NC(C)=O)C3)c2)cc1OC (stereo not drawn) | inconclusive: 31.6 µM [inhibitor, single point] | 
CCOc1ccc(Cn2nnc3c(=O)[nH]c(C4CCN(C(=O)c5ccccc5)CC4)nc32)cc1 | inconclusive: 11.2 µM [inhibitor, partial curve, poor fit] | 
CCOc1ccccc1/C=C/c1onc(C)c1S(=O)(=O)N1CCC(C(=O)N(CC)CC)CC1 | inconclusive: 11.2 µM [inhibitor, single point] | 
CCCOc1ccc(-c2nn(-c3ccccc3)cc2C2NC(=O)NC(C)=C2C(=O)OC(C)C)cc1 (stereo not drawn) | inconclusive: 17.8 µM [inhibitor, single point] | 
Cc1ccc(NC(=O)Cn2c(=O)n(CCCCCC(=O)NCc3ccc(F)cc3)c(=O)c3sccc32)cc1C | inconclusive: 17.8 µM [inhibitor, single point] | 
C=CCOC(=O)Nc1nc2c(s1)C[C@@H]1[C@](C)(CO)[C@H](O)CC[C@@]1(C)[C@@H]2CC(=O)NC1CCCCC1 | inconclusive: 0.562 µM [inhibitor, full curve, poor fit] | 
Cc1ccc(C(=O)N2CCC3(CC2)NC(=O)N(c2ccc(F)cc2)N3)cc1 | inactive | 
O=C(c1ccoc1)N1CCC[C@H](n2c(=O)n(Cc3ccccc3)c3cccnc32)C1 | inconclusive: 17.8 µM [inhibitor, single point] | 
O=C(CCC(=O)n1ncc2c(Cl)cccc21)N1CCC(Cc2nc(C3CCOCC3)no2)CC1 | inactive | 
Cc1ccc2c(c1)NC(=O)C(CC(=O)Nc1cc(Cl)ccc1C)O2 (stereo not drawn) | inactive | 
COc1ccccc1N1CCN(S(=O)(=O)c2c(C)sc3ncn(CC(=O)Nc4cccc(Cl)c4)c(=O)c23)CC1 | inconclusive: 11.2 µM [inhibitor, single point] | 
COc1ccc(CN2CCNc3cnc(Nc4ccccc4)cc3C2)cn1 | inconclusive: 31.6 µM [inhibitor, single point] | 

Compound | Potency | activity, negative = inhibition
COc1ccc(NC(=O)c2c(NCc3ccc(C)o3)sc3c2CCC(C)C3)c(OC)c1 (stereo not drawn) | inconclusive: 10 µM [inhibitor, single point] | 
Cn1c(=O)oc2cc(S(=O)(=O)CCC(=O)N3CCN(c4ccccc4)CC3)ccc21 | inconclusive: 11.2 µM [inhibitor, single point] | 
CC(C)Cc1ccc(CN2CCC3(Cc4ccccc4CNC3=O)C2)cc1 (stereo not drawn) | active: 12.6 µM | 
COc1ccc(Cn2c(-c3ccccc3)nc(C)c(CCO)c2=O)cc1F | inconclusive: 17.8 µM [inhibitor, single point] | 
O=[N+]([O-])c1cccc(-c2noc([C@@H]3Cc4nc[nH]c4CN3Cc3ccc(F)cc3)n2)c1 | active: 10 µM | 
COc1ccccc1N1CCCc2ncc(C(=O)NCc3cccc(Cl)c3)cc21 | inconclusive: 5.01 µM [inhibitor, full curve, poor fit] | 
O=C(Nc1ccc(Br)cc1)C1CCN(c2cnccn2)CC1 | inactive | 
COc1cc(OC)c(Nc2cc(C)nc3ncnn23)cc1Cl |  | inconclusive: -41.4% [inhibitor] [at 5.79 µM]
O=C(NC1CCN(c2cc(-c3ccc(Cl)cc3)[nH]n2)CC1)c1ccccn1 | inconclusive: 2.51 µM [inhibitor, full curve] | 
O=C(c1ccc2c(c1)OCO2)N1CCC(N2CCNC2=O)CC1 | inactive | 
COc1cc(C2c3c(oc4ccc(C)cc4c3=O)C(=O)N2Cc2ccc(F)cc2)ccc1O (stereo not drawn) | inactive | 
O=C(C1CCN(c2nc(-c3ccccc3)nc3c2CCC3)CC1)N1CCC[C@H]1CO | active: 8.91 µM | 
COCc1ccc2c(c1)c(OC(C)(C)C(N)=O)nn2CCC(C)C | inactive | 
Cc1cc(C)c2c(C)c(C(=O)N3CCC(c4nc5ccccc5s4)CC3)oc2c1 | active: 8.91 µM | 
Cc1ccc2c(C(=O)N3CCCC(C#N)C3)cc(-c3cnn(C(C)C)c3)nc2c1 (stereo not drawn) | inconclusive: 12.6 µM [inhibitor, single point] | 
CS(=O)(=O)CCN1CCN(C(=O)c2cccc(-c3ncc[nH]3)c2)CC1 | inactive | 
CCCN1CCN(C(=O)c2cc(NC(=O)C3CCC3)cc3nc(C)ccc23)CC1 | inconclusive: 11.2 µM [inhibitor, single point] | 
CCn1c2ccc(F)cc2c2nnc(SCCN3CCCCC3)nc21 | active: 12.6 µM | 
Cc1ccc(-c2noc([C@@H]3Cc4nc[nH]c4CN3C(=O)COCC(=O)O)n2)cc1 | inactive | 
C[C@H]1[C@@H]2[C@@H](O)C([C@H](C)C(=O)NCc3ccc(F)cc3)CC[C@@]2(C)CC[C@@H]1NC(=O)c1ccccc1 (stereo partly drawn) | inconclusive: 10 µM [inhibitor, single point] | 
Cc1ccc(NC(=O)C2CCN(C(=O)c3ncn4c3COC(c3ccccc3)C4)CC2)cc1 (stereo not drawn) | inactive | 
CN1CCC(Nc2ncc(C(C)(C)C(=O)O)c(N3CCOCC3)n2)CC1 | inactive | 
